Here are results for 15 sequences from the supplement of paper PMC7826260.

The list shows a part of the results. Each Rep nickase domain was tested in vitro on the same pool of single strands for 1 h at 37 °C with 3 µM enzyme; only the middle of the 90-letter strands is printed. The score is log2 (uncut reads / reads without enzyme); strong cutting gives strongly negative numbers. There is no active / inactive call. Reads are scaled to the total; where an enzyme cuts many sequences, the uncut ones exceed 0.

Common to all, as to assay: uncleaved DNA left, log2 of reads against the no-enzyme library (log2 ratio); higher = less cleavage (more negative = more Rep cleavage of the k-mer); sequences stand for … in CTCGTCCG…ACCGGAGA
In test [1] the test system is T1, Rep nickase domain of Muscovy duck circovirus.
T1 sequence (residues 1-111, tag not shown): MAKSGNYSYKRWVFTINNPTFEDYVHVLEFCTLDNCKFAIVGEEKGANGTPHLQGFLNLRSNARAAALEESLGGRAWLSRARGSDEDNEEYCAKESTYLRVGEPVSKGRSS
On the procedure: (§1)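 A pool of 90-nt single-stranded DNAs with seven random bases just before the constant AC of the nick site (name = the seven bases) was cut by 3 µM recombinant His6-SUMO-tagged Rep nickase domain (300 nM DNA, 50 mM HEPES pH 8.0, 50 mM NaCl, 1 mM MnCl2, 1 h, 37 °C, three replicates). Uncut DNA was amplified and sequenced.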

For test [2], the system named is T2, Rep nickase domain of banana bunchy top virus.
T2 sequence (residues 1-94, tag not shown): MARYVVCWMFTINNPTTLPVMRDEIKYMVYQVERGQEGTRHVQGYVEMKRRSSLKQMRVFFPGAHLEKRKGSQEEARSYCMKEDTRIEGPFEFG
The method, then:
as §1

The subject of test [3] is T3, Rep nickase domain of cabbage leaf curl virus.
T3 sequence (residues 1-116, tag not shown): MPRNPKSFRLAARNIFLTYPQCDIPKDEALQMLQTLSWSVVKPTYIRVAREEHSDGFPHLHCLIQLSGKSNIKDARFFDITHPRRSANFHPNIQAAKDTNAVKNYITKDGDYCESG
On the procedure: as §1
Test [4] has as its system T4, Rep nickase domain of chickpea chlorotic dwarf virus.
T4 sequence (residues 1-124, tag not shown): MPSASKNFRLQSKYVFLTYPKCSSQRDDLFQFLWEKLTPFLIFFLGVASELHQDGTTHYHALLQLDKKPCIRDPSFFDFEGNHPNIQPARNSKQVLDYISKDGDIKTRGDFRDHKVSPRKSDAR
The method, then:
as §1

Test [5] concerns T5, Rep nickase domain of faba bean necrotic yellows virus.
T5 sequence (residues 1-98, tag not shown): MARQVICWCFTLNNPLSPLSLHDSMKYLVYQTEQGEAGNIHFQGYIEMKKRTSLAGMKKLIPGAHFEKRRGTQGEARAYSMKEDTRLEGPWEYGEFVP
On the procedure: as §1
Test [6] relates to T6, Rep nickase domain of maize striate mosaic virus.
T6 sequence (residues 1-117, tag not shown): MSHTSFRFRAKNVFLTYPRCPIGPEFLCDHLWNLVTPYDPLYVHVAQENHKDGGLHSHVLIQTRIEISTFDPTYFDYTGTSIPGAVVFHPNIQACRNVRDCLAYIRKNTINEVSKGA
On the procedure: as §1
Test [7] has as its system T7, Rep nickase domain of porcine circovirus 2.
T7 sequence (residues 2-116, tag not shown): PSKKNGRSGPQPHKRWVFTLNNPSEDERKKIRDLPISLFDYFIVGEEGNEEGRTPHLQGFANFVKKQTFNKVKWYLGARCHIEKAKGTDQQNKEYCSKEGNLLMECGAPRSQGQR
On the procedure: as §1
Test [8] relates to T8, Rep nickase domain of tomato golden mosaic virus.
T8 sequence (residues 1-124, tag not shown): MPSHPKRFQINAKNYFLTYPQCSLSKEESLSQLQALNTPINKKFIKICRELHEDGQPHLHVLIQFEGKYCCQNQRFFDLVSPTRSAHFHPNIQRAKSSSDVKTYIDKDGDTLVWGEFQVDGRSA
On the procedure: as §1
In test [9] the test system is T9, Rep nickase domain of tomato yellow leaf curl virus.
T9 sequence (residues 1-136, tag not shown): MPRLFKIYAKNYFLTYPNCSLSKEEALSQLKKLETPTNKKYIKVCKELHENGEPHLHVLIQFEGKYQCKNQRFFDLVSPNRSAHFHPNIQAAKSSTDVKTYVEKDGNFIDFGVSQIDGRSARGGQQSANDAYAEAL
On the procedure: as §1
For test [10], the system named is T10, Rep nickase domain of wheat dwarf virus.
T10 sequence (residues 1-137, tag not shown): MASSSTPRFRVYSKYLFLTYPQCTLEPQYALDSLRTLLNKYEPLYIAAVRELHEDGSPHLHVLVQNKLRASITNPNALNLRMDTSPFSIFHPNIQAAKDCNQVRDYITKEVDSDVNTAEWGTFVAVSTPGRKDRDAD
The method, then: as §1

For the sequence CGAGGCG, the “uncleaved DNA left (log2)” value in [1] was -0.183; in test [2], -0.118; in [3], -0.837; in test [4], 0.157; in test [5] it was -0.117; in [6] it was -0.782. The “uncleaved DNA left (log2)” value in [7] was 0.0343; in [8] it was -0.0627; in test [9] it was 0.0884; in [10], -0.21.

CCCGCGT: the “uncleaved DNA left (log2)” value was -0.24 in [1]; -0.114 in [2]; -0.755 in test [3]; -0.548 in [4]; 0.0156 in test [5]; -0.715 in test [6]. The “uncleaved DNA left (log2)” value in test [7] is 0.265; in test [8], 0.0107; in [9] it was 0.00798; in test [10], -0.15.

AATGTTG: the “uncleaved DNA left (log2)” value was 0.00494 in test [1]; -0.074 in test [2]; 0.122 in [3]; 0.275 in [4]; 0.0255 in [5]; 0.0205 in test [6]. For the same sequence, the “uncleaved DNA left (log2)” value was found to be 0.217 in test [7], 0.00523 in [8], 0.044 in [9] and 0.0629 in test [10].

As to ATGTGCC, the “uncleaved DNA left (log2)” value in test [1] was -0.0776; in [2], -0.0922; in test [3], -0.421; in test [4], -0.393; in test [5], 0.0548; in [6], -1.05. The “uncleaved DNA left (log2)” value was -0.00729 in test [7], -0.0665 in [8], -0.0568 in test [9] and -0.098 in test [10].

With ACCTTCC, the “uncleaved DNA left (log2)” value in [1] was -0.036; in [2], -0.027; in test [3], -0.156; in test [4], -0.419; in test [5], -0.223; in test [6], -0.843. In addition, the “uncleaved DNA left (log2)” value was -0.13 in test [7], -0.0699 in test [8], -0.128 in [9] and -0.115 in [10].

Take GAAGCTA: the “uncleaved DNA left (log2)” value in test [1] turned out to be 0.133; in test [2], 0.175; in test [3], 0.345; in test [4], 0.363; in [5] it was 0.169; in test [6], 1.19. In addition, the “uncleaved DNA left (log2)” value in [7] came to 0.223; in test [8], 0.218; in test [9], 0.0868; in test [10], 0.102.

Regarding TGTCAAA, the “uncleaved DNA left (log2)” value is -0.0804 in test [1]; -0.0554 in [2]; 0.197 in [3]; 0.499 in test [4]; -0.121 in [5]; 0.339 in test [6]. In addition, the “uncleaved DNA left (log2)” value in test [7] was -0.0803; in [8], 0.0227; in test [9], -0.0207; in test [10], 0.096.

On to TGCTGAC, for which the “uncleaved DNA left (log2)” value in test [1] is -0.0107; in test [2] it was 0.0241; in [3] it was 0.0373; in test [4], 0.455; in test [5] it was 0.102; in test [6], 0.0062. Also, the “uncleaved DNA left (log2)” value is 0.0279 in [7], -0.0435 in test [8], -0.187 in [9] and -0.0156 in test [10].

For GCTAGAT, the “uncleaved DNA left (log2)” value in test [1] was -0.00834; in [2], -0.00997; in test [3], 0.214; in test [4], 0.663; in test [5], -0.0447; in test [6] it was 0.702. The “uncleaved DNA left (log2)” value in test [7] is 0.00741; in test [8] it was 0.0719; in test [9] it was -0.0821; in [10], 0.0548.

As to TATTCGT, the “uncleaved DNA left (log2)” value was -3.4 in [1]; -1.49 in [2]; -0.653 in test [3]; -1.45 in test [4]; 0.0294 in test [5]; -1.31 in test [6]. Moreover, the “uncleaved DNA left (log2)” value is -3.73 in test [7], -0.165 in [8], -0.0587 in [9] and -0.226 in test [10].

Turning to ACAAGAA, the “uncleaved DNA left (log2)” value in [1] was 0.0264; in test [2] it was 0.0972; in [3] it was -0.104; in [4], 0.015; in [5], 0.125; in [6], -0.761. The “uncleaved DNA left (log2)” value in [7] was 0.1; in [8], 0.05; in [9] it was -0.0921; in test [10] it was 0.0574.

As for CCTGAGA, the “uncleaved DNA left (log2)” value in test [1] is 0.0608; in [2] it was 0.0803; in [3], 0.235; in [4] it was 0.239; in test [5], 0.00259; in test [6], -0.635. The “uncleaved DNA left (log2)” value is 0.156 in [7], 0.156 in test [8], 0.115 in [9] and -0.0044 in test [10].

Consider AGCTTCA, for which the “uncleaved DNA left (log2)” value in test [1] was 0.0267; in test [2], -0.0154; in test [3], 0.132; in [4], -0.209; in test [5], 0.0922; in [6], 0.192. In addition, the “uncleaved DNA left (log2)” value was -1.24 in test [7], 0.0883 in test [8], 0.0738 in test [9] and 0.0941 in [10].

ATGGCTG: the “uncleaved DNA left (log2)” value in test [1] is -0.00402; in [2], 0.0492; in test [3] it was 0.299; in test [4] it was 1.22; in test [5], 0.0279; in [6], 1.59. In addition, the “uncleaved DNA left (log2)” value is 0.111 in [7], 0.0887 in test [8], -0.217 in [9] and -0.0239 in [10].

Take CGGCAAC: the “uncleaved DNA left (log2)” value in test [1] was 0.0183; in test [2] it was -0.0374; in test [3] it was 0.0958; in test [4], 0.225; in test [5] it was -0.0191; in [6], 0.467. For the same sequence, the “uncleaved DNA left (log2)” value in [7] was 0.0316; in [8] it was -0.0797; in test [9], -0.042; in test [10], 0.062.
